In the supplement of paper PMC4967469:
Lines with a small IC50 respond at low doses; a limit (>, <) means that the fit lies beyond the doses tested. For AUC the same curve is integrated over the 256-fold range of doses and scaled to a fraction; it is 1 without any effect and falls as sensitivity rises. For part of these data: An inferred top dose is not printed in the source and was worked back from the curve model.

Key:
Assay in all cases: Viability of human cancer cell lines after 72 h of drug (GDSC screen)
XL-184 = compound: COc1cc2nccc(Oc3ccc(NC(=O)C4(C(=O)Nc5ccc(F)cc5)CC4)cc3)c2cc1OC [XL-184]; settings: top dose 5.12 µM; top dose inferred
Method: (§1)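 Human cancer cell lines in 384-well plates, medium with 10% serum, drug for 72 h over a 256-fold dose range (nine 2-fold or five 4-fold steps up to the top dose). Adherent lines were fixed and stained with the nucleic acid dye Syto60, suspension lines read with resazurin; signal relative to control wells, capped at 0 and 100%. One two-parameter sigmoid per drug and line, fitted in a mixed model over all curves with the slope shared within a line.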

EHT 1864 = compound: O=c1cc(CN2CCOCC2)occ1OCCCCCSc1ccnc2cc(C(F)(F)F)ccc12 [EHT 1864]; settings: top dose 10 µM; top dose inferred
Method: as §1

QL-XI-92 = compound: C=CC(=O)Nc1cc(NC(=O)c2ccc(C)c(NC(=O)c3ccno3)c2)cc(C(F)(F)F)c1 [QL-XI-92]; settings: top dose 10.24 µM; top dose inferred
Method: as §1

Phenformin = compound: N=C(N)NC(=N)NCCc1ccccc1 [Phenformin]; settings: top dose 4000 µM; top dose inferred
Method: as §1

AG-014699 = compound: CNCc1ccc(-c2[nH]c3cc(F)cc4c3c2CCNC4=O)cc1 [AG-014699]; settings: top dose 5 µM; top dose inferred
Method: as §1

WHI-P97 = compound: COc1cc2ncnc(Nc3cc(Br)c(O)c(Br)c3)c2cc1OC [WHI-P97]; settings: top dose 10.24 µM; top dose inferred
Method: as §1

Gefitinib = compound: COc1cc2ncnc(Nc3ccc(F)c(Cl)c3)c2cc1OCCCN1CCOCC1 [Gefitinib]; settings: top dose 0.5 µM
Method: as §1

Vinorelbine = compound: CCC1=C[C@@H]2CN(C1)Cc1c([nH]c3ccccc13)[C@@](C(=O)OC)(c1cc3c(cc1OC)N(C)[C@H]1[C@@](O)(C(=O)OC)[C@H](OC(C)=O)[C@]4(CC)C=CCN5CC[C@]31[C@@H]54)C2 [Vinorelbine]; settings: top dose 0.064 µM; top dose inferred
Method: as §1

NU-7441 = compound: O=c1cc(N2CCOCC2)oc2c(-c3cccc4c3sc3ccccc34)cccc12 [NU-7441]; settings: top dose 2 µM; top dose inferred
Method: as §1

| Cell Line | AUC (XL-184) | IC50 (XL-184) | AUC (EHT 1864) | IC50 (EHT 1864) | AUC (QL-XI-92) | IC50 (QL-XI-92) | AUC (Phenformin) | IC50 (Phenformin) | AUC (AG-014699) | IC50 (AG-014699) | AUC (WHI-P97) | IC50 (WHI-P97) | AUC (Gefitinib) | IC50 (Gefitinib) | AUC (Vinorelbine) | IC50 (Vinorelbine) | AUC (NU-7441) | IC50 (NU-7441) |
| --- | --- | --- | --- | --- | --- | --- | --- | --- | --- | --- | --- | --- | --- | --- | --- | --- | --- | --- |
| BICR78 (head and neck, adherent) | 0.949 | > 5.12 µM | 0.921 | > 10 µM | 0.981 | > 10.2 µM | 0.823 | 2850 µM | 0.963 | > 5 µM | 0.98 | > 10.2 µM | 0.583 | 0.0546 µM | 0.731 | 0.0204 µM | 0.899 | > 2 µM |
| BT-483 (breast, adherent) | 0.976 | > 5.12 µM | 0.876 | > 10 µM | 0.967 | > 10.2 µM | 0.975 | > 4000 µM | 0.969 | > 5 µM | 0.95 | > 10.2 µM | 0.963 | > 0.5 µM | 0.947 | > 0.064 µM | 0.972 | > 2 µM |
| C3A (liver, adherent) | 0.988 | > 5.12 µM | 0.884 | > 10 µM | 0.988 | > 10.2 µM | 0.904 | > 4000 µM | 0.976 | > 5 µM | 0.988 | > 10.2 µM | 0.973 | > 0.5 µM | 0.904 | > 0.064 µM | 0.988 | > 2 µM |
| C32 (melanoma, adherent) | 0.987 | > 5.12 µM | 0.977 | > 10 µM | 0.987 | > 10.2 µM | 0.851 | 3380 µM | 0.981 | > 5 µM | 0.987 | > 10.2 µM | 0.97 | > 0.5 µM | 0.962 | > 0.064 µM | 0.98 | > 2 µM |
| C-4-I (cervix, adherent) | 0.961 | > 5.12 µM | 0.984 | > 10 µM | 0.986 | > 10.2 µM | 0.937 | > 4000 µM | 0.985 | > 5 µM | 0.984 | > 10.2 µM | 0.956 | > 0.5 µM | 0.669 | 0.0123 µM | 0.975 | > 2 µM |
| C-33-A (cervix, adherent) | 0.9 | > 5.12 µM | 0.925 | > 10 µM | 0.976 | > 10.2 µM | 0.23 | 41.1 µM | 0.985 | > 5 µM | 0.862 | 8.79 µM | 0.941 | > 0.5 µM | 0.56 | 0.00583 µM | 0.974 | > 2 µM |
| CAL-12T (non-small cell lung carcinoma, adherent) | 0.884 | > 5.12 µM | 0.947 | > 10 µM | 0.893 | > 10.2 µM | 0.581 | 427 µM | 0.966 | > 5 µM | 0.815 | 6.48 µM | 0.894 | > 0.5 µM | 0.732 | 0.0201 µM | 0.906 | > 2 µM |
| CAL-27 (head and neck, adherent) | 0.944 | > 5.12 µM | 0.96 | > 10 µM | 0.974 | > 10.2 µM | 0.942 | > 4000 µM | 0.97 | > 5 µM | 0.907 | > 10.2 µM | 0.618 | 0.0666 µM | 0.69 | 0.0138 µM | 0.935 | > 2 µM |
| CAL-29 (bladder, adherent) | 0.965 | > 5.12 µM | 0.966 | > 10 µM | 0.985 | > 10.2 µM | 0.973 | > 4000 µM | 0.946 | > 5 µM | 0.98 | > 10.2 µM | 0.898 | > 0.5 µM | 0.741 | 0.0208 µM | 0.943 | > 2 µM |
| CAL-33 (head and neck, adherent) | 0.959 | > 5.12 µM | 0.951 | > 10 µM | 0.939 | > 10.2 µM | 0.887 | > 4000 µM | 0.955 | > 5 µM | 0.965 | > 10.2 µM | 0.736 | 0.148 µM | 0.547 | 0.00536 µM | 0.918 | > 2 µM |
| CAL-39 (cervix, adherent) | 0.909 | > 5.12 µM | 0.953 | > 10 µM | 0.981 | > 10.2 µM | 0.968 | > 4000 µM | 0.964 | > 5 µM | 0.925 | > 10.2 µM | 0.863 | 0.46 µM | 0.518 | 0.00449 µM | 0.983 | > 2 µM |
| CAL-51 (breast, adherent) | 0.991 | > 5.12 µM | 0.95 | > 10 µM | 0.986 | > 10.2 µM | 0.833 | 2110 µM | 0.837 | 2.72 µM | 0.991 | > 10.2 µM | 0.975 | > 0.5 µM | 0.632 | 0.00875 µM | 0.911 | > 2 µM |
| CAL-72 (osteosarcoma, adherent) | 0.984 | > 5.12 µM | 0.982 | > 10 µM | 0.984 | > 10.2 µM | 0.867 | > 4000 µM | 0.976 | > 5 µM | 0.984 | > 10.2 µM | 0.984 | > 0.5 µM | 0.926 | > 0.064 µM | 0.928 | > 2 µM |
| CAL-78 (chondrosarcoma, adherent) | 0.907 | > 5.12 µM | 0.986 | > 10 µM | 0.986 | > 10.2 µM | 0.841 | 3380 µM | 0.986 | > 5 µM | 0.985 | > 10.2 µM | 0.986 | > 0.5 µM | 0.826 | 0.0465 µM | 0.975 | > 2 µM |
| CAL-120 (breast, adherent) | 0.904 | > 5.12 µM | 0.933 | > 10 µM | 0.963 | > 10.2 µM | 0.823 | 3320 µM | 0.953 | > 5 µM | 0.912 | > 10.2 µM | 0.953 | > 0.5 µM | 0.774 | 0.0326 µM | 0.974 | > 2 µM |
